In paper PMC5533585:
No constants are given. Whether binding was seen depends on the method and setting. In cells and extracts the contact can be indirect. Some entries that bind do so weakly or less than the wild type. For some of these results: Tags and fused reporters may be left off the sequences shown.

By UniProt entry, the sequences of proteins in these tests, tags left out. Chains listed by the source or under a name are the forms on record and can include a tag or linker. Residues count along the entry.
UniProt P63172: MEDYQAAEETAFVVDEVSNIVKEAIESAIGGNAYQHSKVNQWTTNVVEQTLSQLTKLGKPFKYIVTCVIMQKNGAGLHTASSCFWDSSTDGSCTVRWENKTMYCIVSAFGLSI
UniProt O43237: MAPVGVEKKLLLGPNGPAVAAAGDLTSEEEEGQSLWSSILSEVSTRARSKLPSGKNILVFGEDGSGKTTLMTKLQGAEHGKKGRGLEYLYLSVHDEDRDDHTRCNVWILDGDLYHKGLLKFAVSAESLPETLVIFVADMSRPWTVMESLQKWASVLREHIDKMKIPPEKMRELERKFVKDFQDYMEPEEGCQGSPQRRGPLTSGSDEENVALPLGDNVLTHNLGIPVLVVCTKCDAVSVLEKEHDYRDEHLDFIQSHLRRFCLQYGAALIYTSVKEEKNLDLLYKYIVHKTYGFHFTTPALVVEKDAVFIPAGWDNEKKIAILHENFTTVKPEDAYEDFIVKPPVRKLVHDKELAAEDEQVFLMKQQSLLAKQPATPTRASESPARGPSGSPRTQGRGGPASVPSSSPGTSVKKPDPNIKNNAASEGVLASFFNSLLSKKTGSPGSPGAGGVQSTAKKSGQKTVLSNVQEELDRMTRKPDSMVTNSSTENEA
NINL (1-702) tagged with GFP and 3×FLAG (Q9Y2I6, residues 1-702): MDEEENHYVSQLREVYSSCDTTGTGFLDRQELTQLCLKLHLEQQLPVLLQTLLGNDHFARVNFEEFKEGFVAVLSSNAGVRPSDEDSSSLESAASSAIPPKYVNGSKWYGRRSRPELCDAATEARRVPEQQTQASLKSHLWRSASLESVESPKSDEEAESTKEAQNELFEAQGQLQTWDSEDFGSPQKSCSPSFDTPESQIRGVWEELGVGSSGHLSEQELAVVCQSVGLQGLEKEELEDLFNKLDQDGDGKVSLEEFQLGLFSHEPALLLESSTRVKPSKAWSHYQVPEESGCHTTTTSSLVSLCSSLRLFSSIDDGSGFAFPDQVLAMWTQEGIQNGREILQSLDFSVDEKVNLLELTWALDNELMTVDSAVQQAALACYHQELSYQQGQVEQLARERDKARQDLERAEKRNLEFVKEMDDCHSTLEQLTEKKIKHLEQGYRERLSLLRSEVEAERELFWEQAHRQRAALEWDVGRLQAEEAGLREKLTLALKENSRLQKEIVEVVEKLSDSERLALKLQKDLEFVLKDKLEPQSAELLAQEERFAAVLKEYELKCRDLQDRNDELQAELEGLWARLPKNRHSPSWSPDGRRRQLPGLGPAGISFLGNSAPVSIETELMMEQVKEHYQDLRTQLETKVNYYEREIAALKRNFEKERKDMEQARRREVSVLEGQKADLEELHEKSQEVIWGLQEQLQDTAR
NINL (373-702) (Q9Y2I6, residues 373-702): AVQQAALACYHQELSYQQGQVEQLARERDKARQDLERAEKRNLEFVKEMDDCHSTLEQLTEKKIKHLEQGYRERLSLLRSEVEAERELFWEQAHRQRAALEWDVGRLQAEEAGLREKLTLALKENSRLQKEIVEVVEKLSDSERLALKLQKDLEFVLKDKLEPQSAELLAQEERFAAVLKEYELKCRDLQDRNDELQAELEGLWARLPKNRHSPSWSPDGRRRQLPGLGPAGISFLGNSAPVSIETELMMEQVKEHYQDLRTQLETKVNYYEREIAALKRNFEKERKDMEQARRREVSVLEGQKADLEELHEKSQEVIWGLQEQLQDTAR
UniProt Q14204: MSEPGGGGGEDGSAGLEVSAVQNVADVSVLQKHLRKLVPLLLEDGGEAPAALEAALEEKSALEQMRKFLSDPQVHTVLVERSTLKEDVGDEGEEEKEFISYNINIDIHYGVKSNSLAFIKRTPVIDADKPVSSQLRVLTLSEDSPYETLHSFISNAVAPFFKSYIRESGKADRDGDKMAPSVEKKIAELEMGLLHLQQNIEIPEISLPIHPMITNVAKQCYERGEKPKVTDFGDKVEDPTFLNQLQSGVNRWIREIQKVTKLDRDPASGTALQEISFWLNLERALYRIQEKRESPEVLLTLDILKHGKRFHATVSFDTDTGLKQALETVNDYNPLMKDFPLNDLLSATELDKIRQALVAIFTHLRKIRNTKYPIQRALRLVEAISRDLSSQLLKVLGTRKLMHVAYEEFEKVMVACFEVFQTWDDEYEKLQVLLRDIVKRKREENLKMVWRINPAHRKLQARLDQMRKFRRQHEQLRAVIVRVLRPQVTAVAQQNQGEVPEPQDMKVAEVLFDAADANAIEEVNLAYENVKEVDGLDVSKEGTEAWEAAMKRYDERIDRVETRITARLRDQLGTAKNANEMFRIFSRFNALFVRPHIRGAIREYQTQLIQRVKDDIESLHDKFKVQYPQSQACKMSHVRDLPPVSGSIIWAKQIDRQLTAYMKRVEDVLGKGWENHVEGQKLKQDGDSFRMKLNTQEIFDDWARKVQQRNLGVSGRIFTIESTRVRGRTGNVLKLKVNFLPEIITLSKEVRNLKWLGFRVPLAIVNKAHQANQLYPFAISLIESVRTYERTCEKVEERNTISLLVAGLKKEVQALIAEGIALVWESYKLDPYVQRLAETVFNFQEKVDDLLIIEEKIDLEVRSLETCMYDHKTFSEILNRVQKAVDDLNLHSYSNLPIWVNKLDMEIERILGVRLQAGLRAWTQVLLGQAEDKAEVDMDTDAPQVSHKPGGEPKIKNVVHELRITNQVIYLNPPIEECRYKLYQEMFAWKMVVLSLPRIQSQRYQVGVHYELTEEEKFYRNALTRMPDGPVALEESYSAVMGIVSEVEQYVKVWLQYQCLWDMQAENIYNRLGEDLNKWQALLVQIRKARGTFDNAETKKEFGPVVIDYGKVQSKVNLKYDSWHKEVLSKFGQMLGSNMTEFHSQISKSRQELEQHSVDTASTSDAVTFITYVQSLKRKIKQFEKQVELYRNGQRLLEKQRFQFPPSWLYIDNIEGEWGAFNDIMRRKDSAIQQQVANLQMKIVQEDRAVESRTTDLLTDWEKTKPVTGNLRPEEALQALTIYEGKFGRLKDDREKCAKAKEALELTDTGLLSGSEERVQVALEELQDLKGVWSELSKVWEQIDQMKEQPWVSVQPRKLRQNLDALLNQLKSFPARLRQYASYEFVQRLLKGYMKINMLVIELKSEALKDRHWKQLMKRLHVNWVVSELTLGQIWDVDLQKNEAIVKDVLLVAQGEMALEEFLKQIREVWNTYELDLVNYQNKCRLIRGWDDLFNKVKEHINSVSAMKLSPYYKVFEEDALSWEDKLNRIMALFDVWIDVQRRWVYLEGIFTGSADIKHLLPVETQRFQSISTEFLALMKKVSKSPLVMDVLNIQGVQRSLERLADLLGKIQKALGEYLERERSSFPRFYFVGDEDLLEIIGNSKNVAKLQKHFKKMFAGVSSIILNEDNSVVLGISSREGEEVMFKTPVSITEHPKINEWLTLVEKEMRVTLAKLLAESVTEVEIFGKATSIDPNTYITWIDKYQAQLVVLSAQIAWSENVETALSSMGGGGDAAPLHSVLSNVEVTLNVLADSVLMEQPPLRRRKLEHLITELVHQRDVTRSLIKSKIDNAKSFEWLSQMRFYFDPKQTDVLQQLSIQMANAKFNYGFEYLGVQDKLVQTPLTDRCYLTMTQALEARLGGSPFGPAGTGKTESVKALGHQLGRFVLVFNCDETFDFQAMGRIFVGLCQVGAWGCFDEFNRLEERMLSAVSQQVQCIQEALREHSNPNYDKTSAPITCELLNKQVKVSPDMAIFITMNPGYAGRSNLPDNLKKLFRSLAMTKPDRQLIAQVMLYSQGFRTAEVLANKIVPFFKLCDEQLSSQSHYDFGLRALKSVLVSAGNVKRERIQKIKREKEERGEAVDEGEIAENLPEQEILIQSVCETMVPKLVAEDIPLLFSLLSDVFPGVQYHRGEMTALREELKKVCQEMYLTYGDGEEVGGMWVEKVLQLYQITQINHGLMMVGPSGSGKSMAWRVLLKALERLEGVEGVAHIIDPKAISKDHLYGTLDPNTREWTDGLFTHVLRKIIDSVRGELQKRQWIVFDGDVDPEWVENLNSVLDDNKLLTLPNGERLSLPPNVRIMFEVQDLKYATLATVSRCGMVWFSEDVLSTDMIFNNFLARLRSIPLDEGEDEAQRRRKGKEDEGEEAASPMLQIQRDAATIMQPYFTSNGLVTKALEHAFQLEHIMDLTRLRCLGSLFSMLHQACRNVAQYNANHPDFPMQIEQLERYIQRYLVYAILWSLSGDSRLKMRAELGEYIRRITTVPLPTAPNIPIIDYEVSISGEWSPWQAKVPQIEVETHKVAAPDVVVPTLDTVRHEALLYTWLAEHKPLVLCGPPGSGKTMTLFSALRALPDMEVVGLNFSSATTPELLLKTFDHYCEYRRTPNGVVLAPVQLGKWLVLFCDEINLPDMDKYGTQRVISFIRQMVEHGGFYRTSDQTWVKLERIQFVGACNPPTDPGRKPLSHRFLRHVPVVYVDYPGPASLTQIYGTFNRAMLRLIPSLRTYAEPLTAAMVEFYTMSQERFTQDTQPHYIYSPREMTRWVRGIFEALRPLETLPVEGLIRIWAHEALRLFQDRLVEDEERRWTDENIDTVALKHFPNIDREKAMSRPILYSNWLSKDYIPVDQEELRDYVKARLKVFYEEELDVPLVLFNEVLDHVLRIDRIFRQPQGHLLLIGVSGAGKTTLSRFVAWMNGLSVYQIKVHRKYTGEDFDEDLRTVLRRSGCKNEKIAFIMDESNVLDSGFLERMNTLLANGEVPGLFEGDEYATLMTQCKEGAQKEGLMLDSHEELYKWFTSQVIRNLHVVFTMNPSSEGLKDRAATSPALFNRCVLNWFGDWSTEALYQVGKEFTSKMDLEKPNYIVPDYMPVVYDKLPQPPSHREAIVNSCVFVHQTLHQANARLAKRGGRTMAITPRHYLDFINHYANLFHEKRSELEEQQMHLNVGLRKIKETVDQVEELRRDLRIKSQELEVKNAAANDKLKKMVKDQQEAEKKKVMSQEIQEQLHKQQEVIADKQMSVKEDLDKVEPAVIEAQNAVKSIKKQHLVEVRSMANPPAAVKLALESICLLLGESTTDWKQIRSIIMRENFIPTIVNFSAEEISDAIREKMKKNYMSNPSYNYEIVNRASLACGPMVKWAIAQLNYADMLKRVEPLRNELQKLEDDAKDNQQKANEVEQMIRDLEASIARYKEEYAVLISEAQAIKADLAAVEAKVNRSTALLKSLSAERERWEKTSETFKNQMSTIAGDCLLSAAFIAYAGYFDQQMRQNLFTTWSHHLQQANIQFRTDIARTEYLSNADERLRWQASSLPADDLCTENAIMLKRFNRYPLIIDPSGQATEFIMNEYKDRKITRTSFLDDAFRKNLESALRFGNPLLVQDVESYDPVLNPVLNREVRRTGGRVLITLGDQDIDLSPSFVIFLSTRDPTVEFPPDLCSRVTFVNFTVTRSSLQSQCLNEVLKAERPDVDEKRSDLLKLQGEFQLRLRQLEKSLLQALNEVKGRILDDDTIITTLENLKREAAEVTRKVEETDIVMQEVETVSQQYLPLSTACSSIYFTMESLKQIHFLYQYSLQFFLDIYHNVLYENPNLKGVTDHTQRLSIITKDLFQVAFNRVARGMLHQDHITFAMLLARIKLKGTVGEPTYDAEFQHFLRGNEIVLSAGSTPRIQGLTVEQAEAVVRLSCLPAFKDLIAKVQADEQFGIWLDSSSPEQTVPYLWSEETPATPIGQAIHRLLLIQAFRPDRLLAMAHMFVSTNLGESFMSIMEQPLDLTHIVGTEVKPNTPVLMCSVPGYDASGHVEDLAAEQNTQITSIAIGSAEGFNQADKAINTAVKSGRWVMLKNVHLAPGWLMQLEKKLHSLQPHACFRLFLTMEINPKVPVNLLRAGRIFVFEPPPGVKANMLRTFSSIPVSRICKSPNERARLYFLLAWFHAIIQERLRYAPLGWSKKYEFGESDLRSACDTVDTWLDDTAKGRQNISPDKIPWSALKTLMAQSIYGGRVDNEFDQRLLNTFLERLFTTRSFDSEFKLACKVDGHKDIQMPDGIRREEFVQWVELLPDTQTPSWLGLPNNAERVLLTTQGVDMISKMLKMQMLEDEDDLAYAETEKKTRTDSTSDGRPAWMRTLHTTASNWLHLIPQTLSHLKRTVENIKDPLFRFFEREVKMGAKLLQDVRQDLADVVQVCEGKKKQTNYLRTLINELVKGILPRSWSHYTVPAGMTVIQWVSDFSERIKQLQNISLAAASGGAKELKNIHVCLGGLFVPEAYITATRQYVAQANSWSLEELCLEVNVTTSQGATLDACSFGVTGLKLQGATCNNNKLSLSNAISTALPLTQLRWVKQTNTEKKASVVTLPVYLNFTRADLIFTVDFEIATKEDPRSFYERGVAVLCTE

What was measured:
p62-BioID-3×FLAG (human) [1] = target: p62-BioID-3×FLAG (human) (UniProt Q9UJW0); test: co-IP; stable HEK-293 cell lines; dynein lysis buffer (25 mM HEPES pH 7.4, 50 mM potassium acetate, 2 mM magnesium acetate, 1 mM EGTA, 10% glycerol, 1 mM DTT) with 0.2% Triton X-100, 0.5 mM Mg-ATP; anti-FLAG M2 agarose, 16 hr or 2 hr, 4°C; Western blots with α-HC and α-p150
[2] = target: LIC1-BioID-3×FLAG (human) (UniProt Q9Y6G9); test: as above
[3] = target: BioID-TCTEX1-3×FLAG (human) (UniProt P63172); test: as above
[4] = target: LIC2-BioID-3×FLAG (human) (UniProt O43237); test: as above
p62-BioID-3×FLAG (human) [5] = target: p62-BioID-3×FLAG (human) (UniProt Q9UJW0); test: condition: only 'harsh' detergent lysis buffer (0.1% SDS, 0.5% sodium deoxycholate, 1% NP40); co-IP; as a1 but 'harsh' detergent lysis buffer (50 mM Tris-HCl pH 8.0, 150 mM NaCl, 0.1% SDS, 0.5% sodium deoxycholate, 1% NP40, 0.5 mM ATP, 1 mM DTT)
[6] = target: sfGFP-BICD2 [1-422]-3×FLAG (human) (UniProt Q8TD16); test: co-IP; transiently transfected HEK293-T cells; anti-FLAG M2 agarose, 2 hr, 4°C; elution with 3×FLAG peptide; Western blots with α-HC, α-p150, α-FAM160A2, α-KIF1C
[7] = target: T1, NIN (1-693) tagged with GFP and 3×FLAG (human) (UniProt Q8N4C6); test: as above
T1 sequence: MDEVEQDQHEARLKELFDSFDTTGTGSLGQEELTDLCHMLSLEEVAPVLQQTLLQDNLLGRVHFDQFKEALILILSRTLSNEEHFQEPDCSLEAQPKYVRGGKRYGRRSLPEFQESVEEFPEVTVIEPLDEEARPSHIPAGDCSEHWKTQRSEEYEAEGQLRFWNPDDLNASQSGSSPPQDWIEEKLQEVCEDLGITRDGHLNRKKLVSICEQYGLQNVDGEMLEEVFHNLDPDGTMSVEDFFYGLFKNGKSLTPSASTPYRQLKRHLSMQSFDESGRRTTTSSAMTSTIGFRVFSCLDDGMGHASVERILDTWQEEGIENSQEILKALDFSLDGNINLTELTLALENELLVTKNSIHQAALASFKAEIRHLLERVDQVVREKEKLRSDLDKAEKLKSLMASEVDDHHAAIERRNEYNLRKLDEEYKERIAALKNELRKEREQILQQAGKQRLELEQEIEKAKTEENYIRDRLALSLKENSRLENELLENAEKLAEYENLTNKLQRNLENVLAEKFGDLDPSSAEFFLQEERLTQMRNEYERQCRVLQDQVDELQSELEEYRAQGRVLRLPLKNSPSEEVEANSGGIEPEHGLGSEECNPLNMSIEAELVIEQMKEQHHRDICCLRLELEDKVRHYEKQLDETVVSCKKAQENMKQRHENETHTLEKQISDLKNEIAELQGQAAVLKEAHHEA

[8] = target: T2, sfGFP-HOOK3 [1-552]-3×FLAG (human) (UniProt Q86VS8); test: as above
T2 sequence: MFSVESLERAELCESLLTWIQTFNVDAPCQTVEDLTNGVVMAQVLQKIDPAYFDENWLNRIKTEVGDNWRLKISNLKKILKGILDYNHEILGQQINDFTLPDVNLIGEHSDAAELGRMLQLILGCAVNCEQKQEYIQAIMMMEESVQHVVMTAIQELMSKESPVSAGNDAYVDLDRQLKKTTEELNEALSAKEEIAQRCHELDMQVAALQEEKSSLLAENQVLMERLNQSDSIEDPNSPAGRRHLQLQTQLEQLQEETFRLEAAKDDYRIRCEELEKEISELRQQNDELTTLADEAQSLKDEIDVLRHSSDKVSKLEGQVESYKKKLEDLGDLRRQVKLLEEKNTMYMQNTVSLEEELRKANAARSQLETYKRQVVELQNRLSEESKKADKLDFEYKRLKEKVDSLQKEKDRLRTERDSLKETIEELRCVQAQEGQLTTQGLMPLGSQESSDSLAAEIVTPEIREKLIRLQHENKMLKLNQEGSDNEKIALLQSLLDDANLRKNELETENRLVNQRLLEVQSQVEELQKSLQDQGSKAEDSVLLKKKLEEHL

[9] = target: NINL (1-702) tagged with GFP and 3×FLAG (human) (UniProt Q9Y2I6); test: as above
NINL (373-702) (human) = NINL (373-702) (human) (UniProt Q9Y2I6); test: as above
[10] = target: T3, sfGFP-girdin [1-425]-3×FLAG (human) (UniProt Q3V6T2); test: as above
T3 sequence: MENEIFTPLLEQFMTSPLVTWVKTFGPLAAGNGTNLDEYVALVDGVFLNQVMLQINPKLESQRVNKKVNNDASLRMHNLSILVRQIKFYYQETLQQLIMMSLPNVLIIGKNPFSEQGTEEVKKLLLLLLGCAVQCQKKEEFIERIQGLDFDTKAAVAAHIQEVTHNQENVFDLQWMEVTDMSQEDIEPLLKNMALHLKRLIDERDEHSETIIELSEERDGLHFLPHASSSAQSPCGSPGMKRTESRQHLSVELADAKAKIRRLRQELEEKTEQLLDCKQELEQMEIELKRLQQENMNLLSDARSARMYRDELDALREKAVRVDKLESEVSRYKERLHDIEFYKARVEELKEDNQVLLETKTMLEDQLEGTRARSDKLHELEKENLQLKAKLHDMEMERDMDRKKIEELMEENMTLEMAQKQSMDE

[11] = target: T4, sfGFP-daple [1-545]-3×FLAG (human) (UniProt Q9P219); test: as above
T4 sequence: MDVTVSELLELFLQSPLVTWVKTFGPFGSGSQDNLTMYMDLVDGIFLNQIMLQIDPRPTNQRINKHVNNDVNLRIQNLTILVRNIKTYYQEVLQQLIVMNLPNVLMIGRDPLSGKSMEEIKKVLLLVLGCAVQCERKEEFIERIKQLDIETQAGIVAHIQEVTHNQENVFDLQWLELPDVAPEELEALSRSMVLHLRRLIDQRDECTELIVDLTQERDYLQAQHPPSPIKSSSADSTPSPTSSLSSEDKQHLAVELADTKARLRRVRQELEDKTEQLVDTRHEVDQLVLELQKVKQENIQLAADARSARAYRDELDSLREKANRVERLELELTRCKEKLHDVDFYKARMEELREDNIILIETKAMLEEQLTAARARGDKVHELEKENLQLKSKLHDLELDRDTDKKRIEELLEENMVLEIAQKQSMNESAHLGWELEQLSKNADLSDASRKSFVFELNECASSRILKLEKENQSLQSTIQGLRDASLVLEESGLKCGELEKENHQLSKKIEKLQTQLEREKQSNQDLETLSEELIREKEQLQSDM

NIN (353-580) (human) = target: T5, NIN (353-580) (human) (UniProt Q8N4C6); test: as above
T5 sequence: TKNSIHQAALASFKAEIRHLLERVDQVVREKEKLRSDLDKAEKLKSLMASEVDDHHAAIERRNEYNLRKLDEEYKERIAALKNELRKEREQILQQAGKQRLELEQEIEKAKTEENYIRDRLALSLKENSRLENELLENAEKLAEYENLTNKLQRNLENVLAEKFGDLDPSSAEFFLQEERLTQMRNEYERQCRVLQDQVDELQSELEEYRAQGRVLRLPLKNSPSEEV

[12] = target: T6, girdin [1-542]-sfGFP-3×FLAG (human) (UniProt Q3V6T2); test: as above
T6 sequence: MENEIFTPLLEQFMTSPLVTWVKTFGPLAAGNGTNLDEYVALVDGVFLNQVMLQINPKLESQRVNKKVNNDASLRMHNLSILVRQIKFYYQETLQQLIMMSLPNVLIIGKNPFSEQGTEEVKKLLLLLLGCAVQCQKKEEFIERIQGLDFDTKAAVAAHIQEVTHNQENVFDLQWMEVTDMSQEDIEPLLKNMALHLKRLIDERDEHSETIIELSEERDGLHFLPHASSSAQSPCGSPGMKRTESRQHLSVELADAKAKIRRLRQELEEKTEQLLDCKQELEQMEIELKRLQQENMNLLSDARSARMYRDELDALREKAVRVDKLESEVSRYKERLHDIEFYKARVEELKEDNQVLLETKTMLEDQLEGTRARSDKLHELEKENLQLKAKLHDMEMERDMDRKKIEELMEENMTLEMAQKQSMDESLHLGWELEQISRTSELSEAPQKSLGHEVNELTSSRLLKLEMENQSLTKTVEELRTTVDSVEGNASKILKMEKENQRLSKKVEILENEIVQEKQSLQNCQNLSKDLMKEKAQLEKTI

p62-BioID-3×FLAG (human) [13] = target: p62-BioID-3×FLAG (human) (UniProt Q9UJW0); test: co-IP; stable HEK-293 cell lines; anti-FLAG M2 agarose, 16 hr, 4°C; 'mild' detergent lysis buffer (50 mM Tris-HCl pH 7.4, 100 mM NaCl, 0.2% Triton X-100, 1 mM DTT, 0.5 mM ATP); elution with 3×FLAG peptide; Western blots with α-HC and α-p150

Row | Substance | binding (p62-BioID-3×FLAG (human) [1]) | binding [2] | binding [3] | binding [4] | binding (p62-BioID-3×FLAG (human) [5]) | binding [6] | binding [7] | binding [8] | binding [9] | binding (NINL (373-702) (human)) | binding [10] | binding [11] | binding (NIN (353-580) (human)) | binding [12] | binding (p62-BioID-3×FLAG (human) [13])
1 | p150 dynactin subunit (from UniProt Q14203-1 1-1278) | binds | binds | binds | binds | no binding | binds | binds | binds | binds | binds | binds | binds | no binding | binds | binds
2 | cytoplasmic dynein-1 heavy chain (from UniProt Q14204 1-4646) | binds | – | – | – | – | binds | – | – | binds | binds | binds | binds | – | binds | –
